B1: PhoQ; a variant is named by its letters at X, in order, P23837 (parent)
chain: MKKLLRLFFPLSLRVRFLLATAAVVLVLSLAYGMVALIGYSVSFDKTTFRLLRGESNLFYTLAKWENNKLHVELPENIDKQSPTMTLIYDENGQLLWAQRDVPWLMKMIQPDWLKSNGFHEIEADVNDTSLLLSGDHSIQQQLQEVREDDDDAEMTHSVAVNVYPATSRMPKLTIVVVDTIPVELKSSYMVWSWFIYVLSANLLLVIPLLWVAAWWSLRPIEALAKEVRELEEHNRELLNPATTRELTSLVRNLNRLLKSERERYDKYRTTLTDLTHSLKTPLXXLQXXLRSLRSEKMSVSDAEPVMLEQISRISQQIGYYLHRASMRGGTLLSRELHPVAPLLDNLTSALNKVYQRKGVNISLDISPEISFVGEQNDFVEVMGNVLDNACKYCLEFVEISARQTDEHLYIVVEDDGPGIPLSKREVIFDRGQRVDTLRPGQGVGLAVAREITEQYEGKIVAGESMLGGARMEVIFGRQHSAPKDE

The list shows a part of the results.

The assay covers variants of B1. Description: enrichment ratio after two sorts for PhoP signalling (ratio (wild type AVST 3.29)); higher = more functional. The note with it: with PhoP (E. coli).
As to SIMF, the enrichment ratio was found to be 2.82. Take DRSA: the enrichment ratio was at most 0.25. Then IMGM, with at most 0.25; and QEAS, with 10.1. Regarding QQVK, the enrichment ratio was at most 0.25.

Regarding EIKI, the enrichment ratio was at most 0.25.

For NEIH, the enrichment ratio is at most 0.25. On to ESYD, for which the enrichment ratio was at most 0.25. For the variant MIVY, the enrichment ratio amounted to 3.34. Consider PEVY, for which the enrichment ratio is at most 0.25. For YGDQ, the enrichment ratio was at most 0.25. Then FEHD, with at most 0.25. In the case of SADQ, the enrichment ratio was at most 0.25.

As to EHPE, the enrichment ratio is at most 0.25. As for FLVG, the figure is at most 0.25; as for VHYS, at most 0.25.

For the variant LTLY, the enrichment ratio was at most 0.25. Take SNLS: the enrichment ratio came to 11.5.

On to KKNK, for which the enrichment ratio is at most 0.25. On to NHCL, for which the enrichment ratio is at most 0.25. Then EEIM, with at most 0.25; and WWAL, with at most 0.25; and PAFR, with at most 0.25. As for APFF, the figure is at most 0.25; as for PPWT, at most 0.25. With ETVN, the enrichment ratio is at most 0.25. For SVSF, the enrichment ratio worked out at 12.6.

As for VYYV, the enrichment ratio was at most 0.25. On to IHVI, for which the enrichment ratio is at most 0.25. As for DVYQ, the figure is at most 0.25; as for KQKA, at most 0.25; as for DMTD, at most 0.25.

Consider FEVK, for which the enrichment ratio is at most 0.25. As to FRDG, the enrichment ratio was at most 0.25. QKIS: the enrichment ratio is at most 0.25. As for TWFK, the enrichment ratio was at most 0.25.

Consider GDFK, for which the enrichment ratio was at most 0.25. As for DIKK, the enrichment ratio was at most 0.25. For WDLD, the enrichment ratio is at most 0.25. Regarding SFME, the enrichment ratio was at most 0.25.

With QRVS, the enrichment ratio was at most 0.25. For KMEL, the enrichment ratio was at most 0.25.

For the variant GFYP, the enrichment ratio was at most 0.25. As for MSGQ, the figure is 14.3.

Take MGCQ: the enrichment ratio came to 2.9. Consider LEAM, for which the enrichment ratio is 4.01. Regarding TVGA, the enrichment ratio turned out to be 7.97.

With SENY, the enrichment ratio is 0.524. With RDIF, the enrichment ratio was at most 0.25.

As for EVEY, the enrichment ratio is at most 0.25.

QTPK: the enrichment ratio is at most 0.25.

Take YNDD: the enrichment ratio was at most 0.25. Consider LPYG, for which the enrichment ratio is at most 0.25. As for KKLY, the figure is at most 0.25.

As to SPIC, the enrichment ratio was at most 0.25.

Take FQVM: the enrichment ratio came out at 3.44. As for PREP, the figure is at most 0.25; as for HNNH, at most 0.25.

With YSED, the enrichment ratio was at most 0.25. With AQMV, the enrichment ratio came to 3.92. For the variant MPSY, the enrichment ratio is at most 0.25. In the case of RGAQ, the enrichment ratio is at most 0.25. Then RYWM, with at most 0.25; and KVMW, with at most 0.25; and GPTN, with at most 0.25. On to PCWP, for which the enrichment ratio was at most 0.25. With SILF, the enrichment ratio is 0.295. On to QHCF, for which the enrichment ratio was at most 0.25.

For the variant DHWD, the enrichment ratio was at most 0.25. As for LICR, the enrichment ratio was at most 0.25. Regarding TLFH, the enrichment ratio was at most 0.25. Take KCAQ: the enrichment ratio was at most 0.25. For AHLS, the enrichment ratio is at most 0.25.

Turning to WSHP, the enrichment ratio was at most 0.25.

Consider DYAV, for which the enrichment ratio is at most 0.25. Regarding QDWD, the enrichment ratio is at most 0.25.

YAFK: the enrichment ratio is at most 0.25. Turning to EYTH, the enrichment ratio was at most 0.25. With LKAD, the enrichment ratio is at most 0.25. As for AFCK, the enrichment ratio is at most 0.25. On to PNPG, for which the enrichment ratio was at most 0.25.

As to ITDR, the enrichment ratio is at most 0.25. As for MDDH, the figure is at most 0.25. As for HFMM, the enrichment ratio was at most 0.25. In the case of FYLL, the enrichment ratio is at most 0.25. In the case of TCNM, the enrichment ratio was determined as 1.24. Turning to KPPH, the enrichment ratio was at most 0.25. Take IFRQ: the enrichment ratio is at most 0.25.

With NFHD, the enrichment ratio is at most 0.25.

For the variant VGEI, the enrichment ratio was at most 0.25. As for QEEF, the enrichment ratio was at most 0.25.

Regarding KIKC, the enrichment ratio was at most 0.25. In the case of TWGH, the enrichment ratio was at most 0.25. Take LSVC: the enrichment ratio was at most 0.25. As for VGPD, the figure is at most 0.25. Take EGKD: the enrichment ratio is at most 0.25. With VRVF, the enrichment ratio was at most 0.25. In the case of HSPA, the enrichment ratio was at most 0.25. In the case of YYRL, the enrichment ratio was at most 0.25. On to AWPI, for which the enrichment ratio was at most 0.25. As for FKLE, the figure is at most 0.25; as for KPRC, at most 0.25. Regarding DTYF, the enrichment ratio is at most 0.25. As for LETK, the enrichment ratio was at most 0.25. Turning to VKYH, the enrichment ratio was at most 0.25. With VALY, the enrichment ratio is 0.301. As for GMYD, the enrichment ratio was at most 0.25. Consider QELF, for which the enrichment ratio is at most 0.25. As for MFIC, the enrichment ratio was at most 0.25. Then GLAQ, with at most 0.25; and GEFY, with at most 0.25. Turning to SGQN, the enrichment ratio was at most 0.25.

Turning to YFLE, the enrichment ratio is at most 0.25. Then YTTF, with at most 0.25; and NYLP, with at most 0.25; and QTSA, with at most 0.25. As for FTFQ, the figure is 1.72; as for KFVE, at most 0.25; as for TTDT, at most 0.25. With SHNG, the enrichment ratio is at most 0.25.

For the variant NHAD, the enrichment ratio is at most 0.25.

Consider FMQQ, for which the enrichment ratio was at most 0.25. As for PEQL, the enrichment ratio was at most 0.25. As for DCNF, the enrichment ratio is at most 0.25.

Turning to HQYI, the enrichment ratio was at most 0.25. As for RDML, the figure is at most 0.25.

Take IKAC: the enrichment ratio is at most 0.25. Consider HATG, for which the enrichment ratio was at most 0.25. As to HGMY, the enrichment ratio was at most 0.25.

As to HWAP, the enrichment ratio is at most 0.25. As for EQDY, the enrichment ratio was at most 0.25. For the variant RFYG, the enrichment ratio was at most 0.25. For HTGK, the enrichment ratio is at most 0.25.

For KNTP, the enrichment ratio was at most 0.25. Then ELCS, with at most 0.25. Regarding KNIG, the enrichment ratio is at most 0.25. In the case of MGLY, the enrichment ratio was found to be 2.79. As for YGRF, the enrichment ratio was at most 0.25.

Take IKGR: the enrichment ratio is at most 0.25. Turning to PCQS, the enrichment ratio is at most 0.25. Regarding PGYI, the enrichment ratio was at most 0.25. Regarding FKQN, the enrichment ratio is at most 0.25. Turning to VIKH, the enrichment ratio was at most 0.25.

MGRL: the enrichment ratio was at most 0.25. HGWQ: the enrichment ratio was at most 0.25. For FMPW, the enrichment ratio is at most 0.25.

As to DIFP, the enrichment ratio is at most 0.25. As for QVHS, the enrichment ratio is at most 0.25. For the variant GVCK, the enrichment ratio is 1.77. With TTPY, the enrichment ratio is at most 0.25. As for YAQY, the enrichment ratio was at most 0.25. For the variant AWPK, the enrichment ratio is at most 0.25. As for TREN, the figure is at most 0.25. For WPRW, the enrichment ratio was at most 0.25. Then YWHS, with at most 0.25; and PVQI, with at most 0.25; and IKRV, with at most 0.25. Consider VAYI, for which the enrichment ratio is at most 0.25.

Turning to DGNW, the enrichment ratio is at most 0.25. In the case of FSSN, the enrichment ratio was at most 0.25. As for IEFY, the figure is at most 0.25; as for WYTM, at most 0.25.

With KRSM, the enrichment ratio was at most 0.25. For the variant YGAA, the enrichment ratio is at most 0.25. Take LFIY: the enrichment ratio is at most 0.25. For KDGA, the enrichment ratio is at most 0.25. MQTF: the enrichment ratio was at most 0.25.

Regarding WQNM, the enrichment ratio is at most 0.25. PALA: the enrichment ratio was at most 0.25. As for DCKH, the figure is at most 0.25. As for MNPM, the enrichment ratio is at most 0.25. With IQFC, the enrichment ratio was at most 0.25. For the variant LPEN, the enrichment ratio was at most 0.25. Then IYEF, with at most 0.25. With SIHV, the enrichment ratio was at most 0.25. Then PIGG, with at most 0.25; and PMYD, with at most 0.25.

Take SRYD: the enrichment ratio was at most 0.25. Regarding EEFR, the enrichment ratio is at most 0.25. Regarding FGVE, the enrichment ratio was at most 0.25. As for IMVG, the enrichment ratio was at most 0.25. As for DNEM, the figure is at most 0.25. As to PPVA, the enrichment ratio is at most 0.25. As for SQCG, the enrichment ratio came to 24.3. In the case of LNWP, the enrichment ratio was at most 0.25.

With WKMD, the enrichment ratio was at most 0.25. Then TKAK, with at most 0.25.

For LANT, the enrichment ratio was at most 0.25. In the case of KSGK, the enrichment ratio is at most 0.25. Then LRWR, with at most 0.25; and SWNH, with at most 0.25; and TGWG, with 5.4.

As for NYYP, the enrichment ratio was at most 0.25. As for YKAA, the figure is at most 0.25. As for WHGD, the enrichment ratio is at most 0.25.

Source of the values: a collection of fitness landscapes (doi:10.1126/science.1257360).
